In the antibiotic and cytotoxicity screens of Wong et al. (2023):
The list shows a part of the results.

Key:
[1] = system: HSkMC (human skeletal muscle cells); test: cytotoxicity call (relative viability < 0.9); details: 10 µM
[2] = system: HepG2; test: cytotoxicity call (relative viability < 0.9); details: 10 µM
[3] = system: S. aureus RN4220; test: growth inhibition call (relative growth <= 0.2); details: 50 µM

COc1ccc2c3c([nH]c2c1)C(C)=NCC3
inactive: cytotoxicity call [1] | cytotoxicity call [2] | growth inhibition call [3]

Cn1ccnc1C(=O)N[C@H]1CN[C@@H]2CCCO[C@@H]12
inactive: cytotoxicity call [1] | cytotoxicity call [2] | growth inhibition call [3]

C[C@@H]1CN([C@@H](C)CO)C(=O)CCCn2nncc2CO[C@H]1CN(C)C(=O)Oc1cccc2ccccc12
inactive: cytotoxicity call [1] | cytotoxicity call [2] | growth inhibition call [3]
